About 6,500 (4.3%) of roughly 150,000 compounds were called active. This list was built around the results that the source calls inconclusive (neither active nor inactive); the mix of calls is not that of the screen. Calls follow the shape of the dose curve; as a rule, active = well fitted inhibition curve with a large enough effect (not every such curve was filed as active); inconclusive = small, poorly fitted or top-dose-only effect, or another doubt; inactive = no such curve, though single readings can be large or run the other way. Potencies of inconclusive entries are left out as doubtful fits.
Each compound was assayed against 15-hydroxyprostaglandin dehydrogenase [NAD(+)] (Homo sapiens) (UniProt P15428) (assay: qHTS Assay for Inhibitors of HPGD (15-Hydroxyprostaglandin Dehydrogenase)). Conditions: purified HPGD, NADH fluorescence kinetic, PGE2 substrate; activity change, negative = inhibition: active compounds read low.
UniProt P15428, sequence (P15428 whole entry, looked up): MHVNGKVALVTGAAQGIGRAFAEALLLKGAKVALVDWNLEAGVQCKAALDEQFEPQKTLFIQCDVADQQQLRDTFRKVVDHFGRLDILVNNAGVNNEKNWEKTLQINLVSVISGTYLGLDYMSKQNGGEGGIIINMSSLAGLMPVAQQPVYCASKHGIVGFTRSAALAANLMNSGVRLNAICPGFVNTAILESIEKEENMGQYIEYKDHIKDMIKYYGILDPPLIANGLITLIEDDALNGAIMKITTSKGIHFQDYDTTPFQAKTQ
Procedure, shortened: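 NADH formation kinetics: reaction with 30 uM PGE2 and 1 mM NAD+ (final), 20 nM enzyme, Tris-HCl pH 8 with Tween 20, after 15 min compound preincubation at room temperature. Fluorescence change, last versus first of five reads.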
In the case of `CCOC(=O)C(C(C)=O)c1nc(C)nc2c1nnn2Cc1ccccc1Cl` (configuration not stated), the Potency is reported as inconclusive [inhibitor, partial curve]. `CN(C)c1ccc(N=Cc2nc(-c3ccccc3)oc2OC(=O)c2cccc(Br)c2)cc1` was tested, and the Potency was inconclusive [inhibitor, partial curve]. With `Cc1c(Cc2ccc3c(c2)OCO3)sc(NC(=O)c2cccc3ccccc23)c1C(N)=O` the Potency was active: 14.1 µM. In the case of `O=C(N/C(=C\c1cccc([N+](=O)[O-])c1)C(=O)N1CCCCC1)c1cccs1`, the activity change, negative = inhibition is reported as inactive: -4.51%. In the case of `COc1cc2c(cc1OC)-c1cc(OCc3ccccc3Cl)nc(=O)n1CC2`, the Potency is reported as inconclusive [inhibitor, partial curve]. `Cc1ccc2cc3c(nc2c1)N(Cc1ccco1)CC3` was tested, and the Potency was inconclusive [inhibitor, partial curve, poor fit]. In the case of `Cc1ccc(C)c(Cn2nnc3c(=O)[nH]c(C4CCCN(C(=O)C5CCCCC5)C4)nc32)c1` (configuration not stated), the Potency is reported as active: 6.31 µM. In the case of `O=C(CCCOc1ccc(Cl)cc1)N1CCCCC1`, the Potency is reported as active: 1.58 µM. In the case of `O=C(NCC1COc2ccccc2O1)C1CCC(CNc2c(N3CCCCC3)c(=O)c2=O)CC1` (configuration not stated), the Potency is reported as active: 14.1 µM. With `CSC1=NC(NCCCO)c2c(sc3c2CC(C)(C)OC3)N1` (configuration not stated) the Potency was inconclusive [inhibitor, partial curve]. `Fc1ccc(N/N=C(/c2ccccc2)c2ccccn2)cc1` was tested, and the Potency was inconclusive [inhibitor, partial curve]. `CC1=NN(c2ccccc2)C(=O)/C1=C\C=C1\N(C)c2ccccc2C1(C)C` was tested, and the activity change, negative = inhibition was inactive: -12.7%. In the case of `COc1ccc(-c2nnc(SCc3nnc(-c4ccccc4)o3)n2C)cc1OC`, the Potency is reported as inconclusive [inhibitor, partial curve]. For `COC(=O)c1cc2oc3ccccc3c2n1Cc1ccccn1`, the Potency was inconclusive [inhibitor, partial curve]. `CCCCC1OC23CCCCC2C(C#N)(C#N)C1(C#N)C(=N)O3` (configuration not stated) was tested, and the Potency was inconclusive [inhibitor, partial curve]. In the case of `COc1cc(/C=N/O)c(Br)cc1OCC(=O)Nc1ccccc1C`, the Potency is reported as inconclusive [inhibitor, partial curve, poor fit]. For `N#C/C(=C\c1ccc(O)c(O)c1)C(N)=O`, the Potency was inconclusive [inhibitor, partial curve]. For `CC(=O)Nc1ccc(S(=O)(=O)N(c2cccnc2)S(=O)(=O)c2ccc(NC(C)=O)cc2)cc1`, the Potency was active: 11.2 µM. `Cc1noc(C)c1C(c1ccccc1)S(=O)(=O)c1ccccc1` (configuration not stated) was tested, and the activity change, negative = inhibition was inactive: -10.7%. With `CC1CC(=O)c2cnc(Nc3cccc(C(F)(F)F)c3)nc2C1` (configuration not stated) the Potency was inconclusive [inhibitor, single point]. `CCCCNc1nc(C)nc2c1nc(-c1ccccc1)n2CC1CCN(C)CC1` was tested, and the Potency was inconclusive [inhibitor, partial curve]. With `CCOC(=O)C1CN(S(=O)(=O)c2ccc(OC)cc2)c2cc(S(=O)(=O)CC)ccc2O1` (configuration not stated) the activity change, negative = inhibition was inactive: -0.9%. `Fc1ccccc1Cc1nnc2n1N=C(c1ccc(Cl)cc1)CS2` was tested, and the activity change, negative = inhibition was inactive: -14.9%. For `Cc1ccc(/C=c2\s/c(=C(/C#N)C(=O)N3CCCC3)n(Cc3ccco3)c2=O)s1`, the Potency was inconclusive [inhibitor, single point]. For `O=C(c1ccc(Br)s1)N1CCN(Cc2ccc3c(c2)OCO3)CC1`, the activity change, negative = inhibition was inactive: -1.04%. In the case of `C=CCn1c(N)cc(=O)nc1SC(C)C(=O)Nc1cccc2ccccc12` (configuration not stated), the activity change, negative = inhibition is reported as inactive: -7.58%. For `CSc1nc(NCc2ccco2)c2ccccc2n1`, the Potency was inconclusive [inhibitor, single point]. In the case of `COC(=O)c1[nH]c2cccc(OC)c2c1NC(=O)CN1CCN(c2cccc(OC)c2)C(C)C1` (configuration not stated), the Potency is reported as inconclusive [inhibitor, single point]. With `CCCCC(=O)Nc1nnc(-c2ccc(OC)cc2)s1` the Potency was inconclusive [inhibitor, partial curve]. With `CC1CCCN(C(=O)CNC(=O)Cn2ccc3ccccc3c2=O)C1` (configuration not stated) the Potency was inconclusive [inhibitor, partial curve]. In the case of `CC1(C)CC(=O)C2=C(C1)Nc1ccccc1NC2c1cccnc1` (configuration not stated), the activity change, negative = inhibition is reported as inactive: -14.3%. With `O=C(CCC(=O)NCCCc1ccccc1)NCCCc1ccccc1` the activity change, negative = inhibition was inactive: -9.81%. For `COc1ccccc1-n1c(CNc2ccc(F)cc2)nnc1SCC(=O)Nc1cc(C)on1`, the activity change, negative = inhibition was inactive: -18.1%. For `Cc1c(C(=O)O)oc2ccc(S(=O)(=O)N3CC(C)CC(C)C3)cc12` (configuration not stated), the Potency was inconclusive [inhibitor, single point]. In the case of `Cc1ccc(N(CC(=O)Nc2ccccc2C(=O)NCc2ccco2)S(=O)(=O)c2ccccc2)cc1C`, the Potency is reported as inconclusive [inhibitor, single point]. `COCCn1c(SCC#N)nnc1-c1ccc(OC)cc1` was tested, and the activity change, negative = inhibition was inactive: -7.94%. For `O=C(CCNc1cc(Cl)cc(Cl)c1)c1ccco1`, the activity change, negative = inhibition was inactive: -15.8%. `CC1=C(C)NC(=S)SC1` was tested, and the Potency was inconclusive [inhibitor, single point]. In the case of `COc1ccc(C(=O)c2no[n+]([O-])c2C(=O)c2ccc(OC)cc2)cc1`, the Potency is reported as inconclusive [inhibitor, single point]. `COc1ccccc1-c1c(C)oc2c(CN3CCN(CCO)CC3)c(O)ccc2c1=O` was tested, and the Potency was inconclusive [inhibitor, partial curve]. With `CC1CN(C(=S)NC(=O)c2ccc([N+](=O)[O-])cc2)CC(C)O1` (configuration not stated) the activity change, negative = inhibition was inactive: -0.117%. With `COc1ccc(CNC(=O)c2ccccc2SC)cc1` the Potency was active: 6.31 µM. `O=C(CCCSc1nc2sc3c(c2c(=O)[nH]1)CCC3)NCCCO` was tested, and the Potency was inconclusive [inhibitor, partial curve]. `Cc1ccc2nc(NC(=O)C(NS(=O)(=O)c3cccc4nsnc34)C(C)C)sc2c1` (configuration not stated) was tested, and the activity change, negative = inhibition was inactive: 0.189%. In the case of `Cc1oc(C(=O)O)cc1COc1ccc2c3c(c(=O)oc2c1C)CCC3`, the Potency is reported as inconclusive [inhibitor, partial curve]. In the case of `CCOC(=O)c1sc(=S)n(C)c1NC(=O)c1ccccc1`, the Potency is reported as active: 8.91 µM. In the case of `Nc1nc2ccccc2n1C(=O)CCc1ccccc1`, the activity change, negative = inhibition is reported as inactive: 3.84%. For `Cc1nnc(NC(=O)c2ccc(-c3cccc(C(F)(F)F)c3)o2)s1`, the Potency was inconclusive [inhibitor, single point]. In the case of `C/C(=N\NC(=O)CNc1cccc(C(F)(F)F)c1)c1ccc(Br)cc1`, the activity change, negative = inhibition is reported as inactive: -13.7%. `Cc1cccc(Cc2c(C)nc3c(C(=O)N4CCN(Cc5ccc6c(c5)OCO6)CC4)cnn3c2C)c1` was tested, and the Potency was inconclusive [inhibitor, partial curve]. With `COc1cc(/C=N/NC(=O)c2ccc(CSc3nc4ccccc4[nH]3)cc2)cc(OC)c1OC` the Potency was inconclusive [inhibitor, partial curve]. With `COc1cccc(/C=N/NC(=O)c2[nH]nc3c2CCc2ccccc2-3)c1O` the Potency was active: 35.5 µM. In the case of `COc1ccc(COn2c(=O)c(C)[n+]([O-])c3ccccc32)cc1OC`, the activity change, negative = inhibition is reported as inactive: -10.4%. For `COc1cc(-c2nc(-c3ccccc3)c(-c3ccc(F)cc3)[nH]2)cc2c1OCO2`, the Potency was inconclusive [inhibitor, partial curve]. In the case of `Cc1cccc(S(=O)(=O)c2c(N)n(-c3ccccc3)c3nc4ccccc4nc23)c1`, the Potency is reported as inconclusive [inhibitor, partial curve]. In the case of `N=C(N)SCc1cccc2ccccc12`, the Potency is reported as inconclusive [inhibitor, single point]. For `Cc1ccc(C2CC2c2n[nH]c(=S)n2-c2ccc(Cl)cc2)cc1` (configuration not stated), the Potency was inconclusive [inhibitor, full curve]. With `COC(=O)c1ccc(SC2CCCCC2)c([N+](=O)[O-])c1` the Potency was inconclusive [inhibitor, single point]. With `CCOc1ccc(C(=O)Nc2cc(-c3nc4ccccc4[nH]3)ccc2Cl)cc1[N+](=O)[O-]` the Potency was inconclusive [inhibitor, single point]. For `CCN(CC)S(=O)(=O)c1ccc(Cl)c(NC(=O)COC(=O)/C=C/c2ccc(O)c(OC)c2)c1`, the Potency was inconclusive [inhibitor, partial curve]. With `Cc1sc2ncnc(N3CCC(C)CC3)c2c1C` the Potency was active: 22.4 µM. In the case of `COc1ccccc1/C=C/C=N/n1c(C2CCCCC2)n[nH]c1=S`, the Potency is reported as active: 7.08 µM. `O=C(Nc1ccc2cn[nH]c2c1)c1c(Cl)cccc1Cl` was tested, and the Potency was active: 22.4 µM. In the case of `CCOc1ccc(NC(=O)Cn2c(=O)oc3ccccc32)cc1`, the Potency is reported as active: 10 µM. In the case of `CCOCC(=O)Nc1cccc(Br)c1`, the Potency is reported as active: 25.1 µM. In the case of `C/C(=C1/C(=O)N(c2ccc([N+](=O)[O-])cc2)N=C1c1ccccc1)N(C)C`, the activity change, negative = inhibition is reported as inactive: -0.813%. `Cc1cc(C)c2cc(C#N)c(NCCOC(=O)c3ccccc3C)nc2c1` was tested, and the Potency was inconclusive [inhibitor, partial curve]. For `COc1ccc(N(C(=O)c2ccc(Br)o2)C2C=CS(=O)(=O)C2)cc1` (configuration not stated), the activity change, negative = inhibition was inactive: -3.57%. With `CCCNC(=S)N(Cc1ccccc1)Cc1nc2ccccc2c(=O)[nH]1` the activity change, negative = inhibition was inactive: -19.9%. With `COc1cccc(-c2noc(Cn3nc(C)c([N+](=O)[O-])c3C)n2)c1` the Potency was active: 25.1 µM. For `Cn1c2ccc(F)cc2c2ncn(Cc3ccco3)c(=O)c21`, the Potency was inconclusive [inhibitor, partial curve]. For `O=C(Nc1cccc(-c2nc3ccccc3[nH]2)c1)c1cccc(NC(=O)c2ccco2)c1`, the Potency was inconclusive [inhibitor, partial curve].
% is scaled to controls: 0 for no effect and ±100 for the full control effect; potency is read from the fitted curve at half-maximal effect; tags tell the direction and shape of the fitted curve.
